# Assay results taken from paper PMC5515408.
# This is one part of the list. At the low end of the ranking, values are background and their order means little.
# Biological target: MAX:MAX (p21) (UniProt P61244-2)
# Test: protein-binding microarray (anti-MAX antibody)
# Conditions: PBM: 15 mM Tris-HCl pH 7.5, 100 mM KCl, 0.075% NP40, 7.5 mM beta-mercaptoethanol, 375 ng/ul BSA, 8 ng/ul poly(dA-dT):(dA-dT), 550 ng complex, 60 min, room …; high values mean tight binding; double strand, one strand shown; sequences stand for … in CCGGC…TTAATAGCTAAGATTACTATATCGACG
row,Sequence,binding signal (log2 normalized fluorescence)
1,ACACACCTGGTA,3.07
2,TGATATTCGGTA,-1.15
3,TGAGCATTAGTA,-0.394
4,TGATCTACTGTA,-0.756
5,TGAGTGTCTGTA,0.0693
6,TGAGTATATGTA,-1.16
7,TGAGAACCCGTA,-0.628
8,TGACTATCCGTA,-0.802
9,TGAGGAGCCGTA,-0.812
10,TGAGTATCAGTA,-1.31
11,CAAATACAGAGC,-0.628
12,TTGCACGTGGTT,3.23
13,TGAGGTTCCGTA,-0.799
14,TGACATCAGGTA,0.218
15,TCACACGCGGTT,3.17
16,TGATATGCTGTA,-0.468
17,TGAATGTGGGTA,0.753
18,TGAGGCCATGTA,0.0723
19,TGAGAGTCCGTA,-1.15
20,TGACCGATAGTA,-0.854
21,TGATGCGTAGTA,-0.342
22,TGAAATGTAGTA,-0.762
23,TGACAGTGTGTA,0.713
24,TGATACCCCGTA,-0.534
25,TGATTTAGAGTA,-1.28

row,Sequence,binding signal (log2 normalized fluorescence)
1,TGAAAAAGTGTA,-0.641
2,TGAAACGTGGAC,2.91
3,TGATTAAGGGTA,-0.832
4,TGACGGACTGTA,-0.344
5,TGACCACCAGTA,0.44
6,TGAAACCTCGTA,0.0071
7,TGACAGAGGGTA,-0.449
8,TGAATTTGTGTA,-0.884
9,TGACACGCTTTA,2.75
10,CGACCCGTGGTA,2.57
11,TGATTCATGGTA,0.201
12,TGAAATTTGGTA,-1.22
13,TGACACAACGTA,0.41
14,TGAGCCTGAGTA,-0.659
15,TGATTTTGAGTA,-1.43
16,TGAATGTATGTA,0.22
17,TGAGTTTATGTA,-1.11
18,TGAGAAGTAGTA,-0.94
19,TGAGGGGAAGTA,0.0524
20,TGAATGTGCGTA,1.47
21,TGAAGACCCGTA,-0.489
22,TGACATGTGGCA,3.15
23,TGACCGGAGGTA,-0.047
24,TGATATAACGTA,-0.719
25,TGAGAATGTGTA,0.399

row,Sequence,binding signal (log2 normalized fluorescence)
1,TGATGGGTAGTA,-0.121
2,TGTCATGTAGTA,0.762
3,TGGCACGAGGTT,3.28
4,TGAGCGCAAGTA,-0.162
5,TGACACGTCTGA,1.46
6,TGAGTAAACGTA,-1.16
7,TGACACCGGGTA,0.829
8,TGAGACGTCGTA,-0.583
9,TGATTCGGTGTA,-0.834
10,TGATCGCCCGTA,-0.637
11,TGACACGTGGTT,3.37
12,TGATCCCCAGTA,-0.709
13,TGCATCGTGGTA,2.94
14,CGACACGTGATA,3.43
15,TGATAACGGGTA,-0.518
16,TGACTACATGTA,0.58
17,TGACTTGAGGTA,0.118
18,TGACACGTCTTA,1.31
19,TGAGACTTCGTA,-1.18
20,TGACACGCGCTA,3.07
21,TGACTCGCTGTA,0.114
22,TGACTTCTCGTA,-0.755
23,GGACACGAGGTA,3.32
24,TGAGCTAAGGTA,-1.18
25,TGAATACGCGTA,-0.433

row,Sequence,binding signal (log2 normalized fluorescence)
1,TGATGGAACGTA,-0.0356
2,TGAACACTGGTA,-0.234
3,TGACACCTCTTA,0.41
4,TGACCATGCGTA,2.79
5,TGAGGACAAGTA,-0.473
6,TGAGGCGAGGTA,0.294
7,TGAATGTTTGTA,0.196
8,TGATCTGAGGTA,-0.909
9,TGACCCGCCGTA,-0.0413
10,GAACACGTAGTA,2.25
11,TGAACAGAAGTA,-0.726
12,TGACCCTACGTA,-0.247
13,TGATATAAGGTA,-1
14,TGAAGGAAAGTA,-0.742
15,TGAACGCAAGTA,0.234
16,TGACTCTGGGTA,-1.04
17,TGATAAGTGGGA,-0.757
18,TCACAAGTGGTA,1.87
19,TCAGTCGTGGTA,1.1
20,TGCCACGTCGCA,2.16
21,TGAATACCGGTA,-0.896
22,TGACATTACGTA,0.0225
23,TGAAGACACGTA,0.591
24,TGACGCGCAGTA,0.0706
25,TGACAGGAGGCA,0.958

row,Sequence,binding signal (log2 normalized fluorescence)
1,TGATCAGTTGTA,0.0196
2,TAATACGGGGTA,-0.331
3,TGAATGTGAGTA,0.436
4,TGAGGTAAGGTA,-0.513
5,TGAACATCTGTA,0.466
6,TGACAAACAGTA,0.0575
7,TGAGTTTTCGTA,-1.1
8,TGAGGACATGTA,0.549
9,TGAAGCCTCGTA,-0.718
10,TGACATCCAGTA,-0.117
11,TGATAGCCAGTA,-1.02
12,CGCAACGTGGTA,3.08
13,TGAATATACGTA,-0.895
14,TGATCGCAAGTA,-0.25
15,TGAAGACGGGTA,-0.654
16,TACTACGTGGTA,1.83
17,TGATGTGGCGTA,0.0972
18,TGACACAGTGTA,0.387
19,TGACCATCCGTA,0.116
20,TGATGGTTCGTA,-0.114
21,TGAAAAATCGTA,-1.14
22,AGACACGTAGTA,2.46
23,TGAGTTTCGGTA,-1.2
24,TGATACTTGGTT,-0.867
25,TGACCGTATGTA,0.677

row,Sequence,binding signal (log2 normalized fluorescence)
1,TGAGCCCCTGTA,-0.569
2,TGACGAAGAGTA,-0.775
3,TGACAGTGGGTA,-0.279
4,TGATATTACGTA,-0.718
5,TGATTCAGGGTA,-0.966
6,TGATATGTCGTA,-0.856
7,TGACACGTCTAA,0.936
8,TGATGGCTCGTA,-0.0028
9,TGAGTTTGAGTA,-1.35
10,TGAATACCCGTA,-0.713
11,TGATCTTGGGTA,-0.93
12,TGACTACAGGTA,-0.577
13,TGACGTTACGTA,-0.0122
14,TGATAGGTCGTA,-1.23
15,TGATATGGTGTA,-0.358
16,TGAGTTGAAGTA,-0.949
17,CGACACGTTGTA,3.14
18,TGAACGGTGGTA,0.0564
19,TGAACCCGCGTA,-0.175
20,TGATCACACGTA,1.49
21,TGATGGTAGGTA,0.124
22,TGAGCTAGCGTA,-1.37
23,TGACGTTATGTA,-0.148
24,TGATCATCTGTA,-0.0292
25,TGAGTACATGTA,0.314

row,Sequence,binding signal (log2 normalized fluorescence)
1,TGAACACTTGTA,0.134
2,TGATTATTAGTA,-1.14
3,TGACCCGGGGTC,-0.231
4,TGAGTCCTCGTA,-0.692
5,TGAGTGGCGGTA,0.049
6,TGAATAAGTGTA,-0.73
7,TGATCGAGCGTA,-1
8,TGATTGCAGGTA,-0.214
9,TGAGAATCGGTA,-1.06
10,TGATAAGCCGTA,-1.36
11,TGATGATGTGTA,0.000904
12,TGACACGCTCTA,2.64
13,TGACATCGTGTA,1.86
14,TGAAAACGGGTA,-0.282
15,TGACTCGGAGTA,-0.796
16,TGAGCCTTAGTA,-1.29
17,TGATCCTACGTA,-0.737
18,TCCAACGTGGTA,3.05
19,TGAAGCAGTGTA,-0.444
20,TGAGTCCAGGTA,-0.78
21,TGAGCTGACGTA,-0.718
22,TGACGCCTTGTA,-0.43
23,TGACATCCTGTA,0.242
24,TGACACACGGTA,1.51
25,TGAAGTACGGTA,-0.26

row,Sequence,binding signal (log2 normalized fluorescence)
1,TGACACATGGTC,3.13
2,TGACACGTGGGC,3.35
3,TAACAAGTGATA,0.403
4,TGAGGGGAGGTA,1.01
5,TGATAGCAGGTA,-0.613
6,TGAGGACGCGTA,-0.268
7,TGAGCATTTGTA,-0.22
8,TGATCTGCTGTA,-0.65
9,TGAAGGCTCGTA,-0.994
10,TGAATGAGGGTA,0.0743
11,TGACAGCAAGTA,0.621
12,TGAAGCGGGGTT,0.322
13,TGACAGTCGGTA,-0.0821
14,TGAAGTGATGTA,-0.128
15,TGAACTCAGGTA,-0.666
16,TGACTCCAGGTA,-0.56
17,TGAGTACACGTA,0.15
18,TCTCAGGTTTTT,-0.587
19,TGATTGACGGTA,-0.929
20,TGAGGGCTGGTA,-0.268
21,TCATACGTAGTA,0.528
22,CGACGCGAGGTA,2.05
23,TGAAACGTCGTA,-0.131
24,TGAGGAACCGTA,-0.709
25,TGAGTTGTTGTA,-0.83

row,Sequence,binding signal (log2 normalized fluorescence)
1,TGAAAATGCGTA,0.393
2,TGATTCACGGTA,0.000807
3,TGAATTGGTGTA,-0.864
4,TGACCCATGGTA,2.08
5,TGATAAAAAGTA,-1.09
6,TGATGGCCCGTA,0.236
7,TGACACGTGGAA,3.16
8,TGATTCAGCGTA,-1.02
9,TGCCATGTGGGA,3.34
10,TGATTTGTGGTA,-0.799
11,TGGCACTTGGTA,-0.00109
12,TGACAGGATGTA,0.32
13,CGCCACGTGGTC,3.44
14,TGATTTGCTGTA,-0.467
15,TGAGCAGTCGTA,-0.649
16,TGACCAGACGTA,-0.192
17,TGATGAACTGTA,-0.564
18,TGATGTGCAGTA,0.631
19,TGAGTGACAGTA,0.0728
20,TGACTGTCAGTA,0.0715
21,TGATGTCGAGTA,-0.197
22,TGACGCCTAGTA,-0.368
23,TGAATTACAGTA,-0.758
24,TGACACGCGGAA,3.1
25,TGATGTCATGTA,0.624

row,Sequence,binding signal (log2 normalized fluorescence)
1,TGAGGACTTGTA,-0.44
2,TGAATCACCGTA,-0.221
3,TGACAGGTGGCA,2.8
4,TGAGTTTGGGTA,-1.33
5,TGACTTAGCGTA,-0.922
6,TGATCCGCGGTA,-0.53
7,TGACCGCCGGTA,-0.241
8,TGACACGTGGCT,3.04
9,TGATACCTCGTA,-0.53
10,TGACTCAGGGTA,-0.515
11,TGAACCGATGTA,-0.234
12,TGAGCACCTGTA,1.68
13,TGAACGCCTGTA,0.727
14,TGAGAGACCGTA,-0.789
15,TAACACGAGGTA,3.28
16,TGATCGGCCGTA,-1.22
17,TGACACGCACTA,2.11
18,TGAGCCACAGTA,-0.607
19,TGATGTGGAGTA,0.0148
20,TGACCTTCTGTA,-0.413
21,TGACTACTTGTA,-0.601
22,TGAATATTTGTA,-1.13
23,TGATAACATGTA,1.05
24,TGACTGCCCGTA,-0.176
25,TGAACGGGCGTA,-0.667

row,Sequence,binding signal (log2 normalized fluorescence)
1,TGAATGTCGGTA,0.217
2,TGACAGTCAGTA,0.00471
3,TGATAAGAGGTA,-0.771
4,TGAGTCTGAGTA,-0.994
5,TGAAACGACGTA,-0.191
6,TGACTTAGAGTA,-0.92
7,TGACCGTGAGTA,0.158
8,TGATGCTACGTA,-0.0564
9,TTAAACCGGGTT,-0.678
10,ATAGTATACAAT,0.0214
11,TGACGCGACGTA,0.105
12,TGACCTATAGTA,-0.773
13,TGGCCCGTGATA,0.636
14,TGACGTAGAGTA,-0.966
15,TGAGACACGGTA,0.481
16,TGATGTTAGGTA,0.0129
17,GGACACATGGTA,3.18
18,TGACAACTCGTA,-0.0789
19,CACACCGTATAT,2.94
20,TGAGGAGGAGTA,-0.901
21,TGAAAAAGAGTA,-1.13
22,TGACAAAGGGTA,-0.411
23,TGATTTACTGTA,-0.884
24,TGAACAGATGTA,1.2
25,TGAAATTCAGTA,-0.776
